# ± gives the standard deviation of the averaged measurements. Some of the results follow.
# Tested on: PfAP2-EXP AP2 domain (GST-tagged)
# Test: gcPBM binding intensity (ln(normalized median fluorescence intensity)); higher = stronger DNA binding
# Summary of the method: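 Binding intensity is defined as the maximum Masliner-normalised natural-log median intensity across replicate spots for either probe orientation. It was measured on an Agilent 4 × 180k array of primer-extended double-stranded 36-bp intergenic genomic probes and negative controls, to which GST-tagged P. falciparum DNA-binding domains made in E. coli were applied for 1 h in 1× PBS with 1% milk, 0.2 mg/ml BSA, 0.5% salmon testes DNA and 0.03% Triton X-100. Detection was by Alexa488 anti-GST antibody and scanning at 488 nm.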
row,Sequence,gcPBM binding intensity (ln)
1,TTTATTTATTTATGTGGTACTTCAAAAATATATACT [XGTACX_site355],8.6 ± 0.45
2,GGATACGCTTTTGTACCACTCCCCCTTTTGGGAATA [CACACA_negctrl_site1363],8.88 ± 0.33
3,CAAACCCACGGACACACACACACAAAAATGATTAAA [CACACA_site5365],8.46 ± 0.5
4,ATCATATAAACATATTGTACTTAAATACATAATATT [XGTACX_site3800],8.46 ± 0.53
5,AGCACACAAAAAAAAAAAAAAAAAAAAAAAGGAATG [GTGCAC_negctrl_site73],8.23 ± 0.59
6,TATGTATTCATATGTTGTACATTATATATAATAAGT [XGTACX_site6589],8.67 ± 0.24
7,AAATCAGAACCTATTTGTACATATACAAAAATGATT [XGTACX_site2421],8.38 ± 0.35
8,CATATGTAGGGAACAATATAATATGCTTTGAATATG [GTGCAC_negctrl_site524],8.68 ± 0.45
9,TTTTAATTAGCTAGACGTACAATAATATACAAATAT [XGTACX_site6068],8.56 ± 0.41
10,ATTTTTTTAAGATAAGAAAAATAAAGTGTGGATATT [XGTACX_negctrl_site476],8.63 ± 0.43
11,TTTATGCATAGAGAAACATGCAAGAAAGATGCAAAA [TGCATGCA_site726],9.03 ± 0.26
12,GCTTGTACATTTTTAAAAAATGACTTCGAAAGGAAT [CACACA_negctrl_site453],8.88 ± 0.47
13,TTCCTTATTATTATTTTACACACGTCCTAATAAGAG [CACACA_site8364],8.83 ± 0.59
14,ATTATGTATACATAAACACACATATTTATAAAAAAA [CACACA_site6261],8.59 ± 0.42
15,ATATATTTATATATATGTACATATTATGTTAAGAAA [XGTACX_site1111],8.59 ± 0.44
16,TTAATATGAAATAAATGTACATAATACATAATAAAA [XGTACX_site6194],8.57 ± 0.4
17,AATTGAAAAATATATAAGAAGAAATATATATATGTT [GTGCAC_negctrl_site97],8.55 ± 0.47
18,GTTTTTAGTATTTTTTGTACTTAATACATAGCCTTA [XGTACX_site7318],8.54 ± 0.32
19,AACACGCGCGGACACACACACACACCCACATATATA [CACACA_site5252],8.72 ± 0.55
20,TATTAACAAATTTATGTGCACTGAGGACAAATATAT,9.17 ± 0.18
21,ATTTATATCTCCATATGTTCAAAACTTTCACAAATA [TGCATGCA_negctrl_site108],8.63 ± 0.41
22,AATATAAATTAATTTACACACTAAAAAATATATATA [CACACA_site3778],8.52 ± 0.34
23,AAAATAAGTAATTACTAATATATAAATTAATAATTA [CACACA_negctrl_site1602],8.22 ± 0.27

row,Sequence,gcPBM binding intensity (ln)
1,AAAGAAAAAAAAATTACACACATATATTATATATAT [CACACA_site3211],8.62 ± 0.12
2,TTTATTAATAAACACACACACACACCCAAAATAAAA [CACACA_site7966],8.96 ± 0.49
3,AAATAGAAGAAATATGCACACATACATTGAAATGTT [CACACA_site7996],8.37 ± 0.51
4,TTTTCTTCATAAATGCTGCACTGGTTTAAGCATGAT,8.59 ± 0.4
5,CCTTAATATTTTTGAAGTACATATTTATTTTACAAG [XGTACX_site3049],8.31 ± 0.33
6,TTAGATTTAAATATCATACACACTTTATATATAATA [CACACA_site959],8.38 ± 0.47
7,CTTGAAAAAATAAAAACACACAATGTGTTTTTGAAT [CACACA_site3283],8.25 ± 0.35
8,ATAAAAATAAACATACGTACTTACACGAATATACAT [XGTACX_site5989],8.66 ± 0.37
9,ATATTACTATATTATTGTACGTTAAAAAAAAAAAAT [XGTACX_site8734],8.51 ± 0.39
10,TTTCTAAATAATTATAATGAATCTGCAAACAAGCAT [XGTACX_negctrl_site391],8.15 ± 0.23
11,AATAAATAAATAAATAAATATATATATATATATATA [GTGCAC_negctrl_site224],10 ± 0.26
12,TTATATTAAAAAAGATGTACGTTTAGGAAAAATATA [XGTACX_site7456],8.63 ± 0.38
13,TGTATATATATCTCAGTGCATTGCAAATTAAAAATT [GTGCAC_site9646],8.65 ± 0.41
14,ATACTCACGTGACACACACACAATATAAATAAATAT [CACACA_site7862],8.65 ± 0.46
15,TATAATAATCTAATCTGTAGTTTTTTTTTTTTTTTT [CACACA_negctrl_site1206],8.09 ± 0.15
16,GGCTTTTTTTAATATGCACACATATATTTTATATAT [CACACA_site8647],8.83 ± 0.028
17,AAAAAAAAACAGAAAACACACAAATTATCTTATAAT [CACACA_site4326],8.45 ± 0.52
18,CTTTTATTCAAAAGATGTACTTAAATATATATCTAA [XGTACX_site4326],8.18 ± 0.22
19,TGCAGTCTGGAGAAACGTACACAGTATCTGGTAACA [XGTACX_site2014],8.62 ± 0.23
20,ATGTGTATAATTAAATGTACATATATATATATATAT [XGTACX_site829],10.2 ± 0.2
21,ATATATATCGGACACACACACATGTTTTAAAACTAT [CACACA_site4218],8.96 ± 0.38
22,CATATAAATATTTGTGCACACAATTATTAATAATTA [CACACA_site3884],8.815 ± 0.078
23,AAAAAGTTATTATGAACACACATTTATTATAGTCAT [CACACA_site6838],8.28 ± 0.31

row,Sequence,gcPBM binding intensity (ln)
1,ATTTGAAATTGGTAGACACACAATAAAATATCAAAA [CACACA_site447],8.46 ± 0.35
2,TTAAACTTGAGACACACACACACACGGATATAAAAA [CACACA_site6495],8.96 ± 0.52
3,TAACATAAATTTAGGAGTACACTTTTTATACATACA [XGTACX_site4066],8.54 ± 0.22
4,CATTATTATTAACATACACACGTGTTATATACCCCC [CACACA_site9365],10.2 ± 0.41
5,TATATATTTATTTATAGTACACTATTTATGAAAACC [XGTACX_site3062],8.54 ± 0.29
6,AAATTCACAATGTTTGGTACACATAAAAAAAAAAGA [XGTACX_site7109],8.73 ± 0.4
7,AACATACGACAATACGCACACATATCTGTACATATT [CACACA_site5115],8.73 ± 0.38
8,TTTATATATTTTGTCGTGCACATTTGGAAAATTACA [GTGCAC_site9776],9.21 ± 0.23
9,TATTATTATTTTATGGTGCAAAAAAAAAAAAAAAAA,8.66 ± 0.23
10,AAAAATTTTTTTTTTTTTTTAAATAATAAAAATGAA [CACACA_negctrl_site1435],7.87 ± 0.42
11,ATATTATAAAATAAAAGTACACAATTATATATATAT [XGTACX_site8812],9.46 ± 0.057
12,AATAAAATGGAATACGGTACACATAATCCTAAAATG [XGTACX_site926],8.7 ± 0.44
13,TATTTTTAAAATTAAATGAATAAATAAATAAATATA [XGTACX_negctrl_site553],8.17 ± 0.28
14,TATCACTATAGACAAGCATGCATATGTACTAATATC [TGCATGCA_site1020],9.52 ± 0.6
15,TTTATATTTATTGTTGTGCACAGAACCATATTCGTT,9.11 ± 0.092
16,AAACAATAAAAGATTACACACATATATAGCATCTAT [CACACA_site5012],8.39 ± 0.36
17,TTTCATTTGTCGTTATGTACTTATTAAATATTATTA [XGTACX_site7709],8.88 ± 0.36
18,TAAAGTAAAGACATACTTATTTTCCATCCACTTCTT [CACACA_negctrl_site1288],8.87 ± 0.39
19,CACATACAGACATACACACATACACATATACGCATA [CACACA_site1745],8.71 ± 0.46
20,ATATATATTTTTATAACACACAATGAAGTACATTAC [CACACA_site8270],8.65 ± 0.092
21,ATATAATATGGTATTACACACTGTTAAAAGTATGGC [CACACA_site5190],8.64 ± 0.35
22,TCTGTATATTTCGCGCGTACGAACAAATTGATAATT [XGTACX_site7965],8.94 ± 0.41
23,ATATATATAAAATGTTGTACATATATATAAATAATA [XGTACX_site1661],8.27 ± 0.31

row,Sequence,gcPBM binding intensity (ln)
1,CTAAAATACAGACACACACACACATATATATATATA [CACACA_site4150],10.1 ± 0.24
2,GGGTTTTTAAAATGTAGTACATATGTAAACATCAAA [XGTACX_site1262],8.78 ± 0.4
3,ATATGCTTATATTATATATATAAGTCTATATATTTT [XGTACX_negctrl_site349],8.21 ± 0.48
4,TTAAAATAGGGCGAAGAAATTTTCTGTAAACATTTG [CACACA_negctrl_site1010],8.54 ± 0.38
5,AACATCTCATATCGTACTACACTCATATATATATAT [XGTACX_site170],10 ± 0.23
6,ATAAAATGAACCTTTTGTACATATATATATATATAT [XGTACX_site4610],10.1 ± 0.57
7,ATATTATATATATATAAACACACAAATATTTTTATA [CACACA_site8486],8.43 ± 0.49
8,CATAAATAAGCTTTAGTGCATTATATTTAAATTTTT,8.44 ± 0.13
9,TTTAATAATAATAAAAGTACACAAATATAAAGGAAA [XGTACX_site5203],8.86 ± 0.41
10,TGAATATTTCTATATACACACATATATATATATATA [CACACA_site3451],10.3 ± 0.12
11,AGGTTTTCTTAAATAGTGCATTATAACAAAAATAAA,8.99 ± 0.39
12,TCACGTATGTATATTACACACATACATATTATTCAC [CACACA_site4276],8.59 ± 0.38
13,TTATACTAAATGAACACACACACATCTATATTTATA [CACACA_site6199],8.57 ± 0.45
14,AATTAAAATAATAATACACACATCATAGAAAAAGAC [CACACA_site292],9.31 ± 0.2
15,AAATTAGACTATAATACACACATAAAAAAAAAATCA [CACACA_site7672],8.59 ± 0.53
16,AATTGGGTAGGACATGCATGAGAAATTAATATTGCA [TGCATGCA_site356],9.3 ± 0.49
17,ATATATATATATATATGTACTAACCTTTTAAAATAT [XGTACX_site6488],10.1 ± 0.38
18,ATGTCAAACATTTGCACACAAAAAAATAAAAATTAA [CACACA_site692],8.46 ± 0.29
19,AATCAAAGCCCACATACACACACATATATATATATA [CACACA_site7987],10.1 ± 0.29
20,TATTACATTGTTGAATGTACTCATTTAAAATTTATA [XGTACX_site7987],8.34 ± 0.38

# From the supplement of paper PMC11417369
